From the supplement of paper PMC3334620
The full ranking holds about 33,000 sequences; the median of “E-score (-0.5 to 0.5)” is about -0.016, and the highest 2% start at about 0.32. Some of the results follow.

What follows are sequences tested against T1, Stp1 (UniProt B3LFK1) (assay: PBM E-score (8-mer binding enrichment) (E-score (-0.5 to 0.5)); higher = stronger / more preferred TF binding; most listed sequences are background and not binding sites). Details: protein concentration: 200 nM; construct: GST-full length.
T1 sequence: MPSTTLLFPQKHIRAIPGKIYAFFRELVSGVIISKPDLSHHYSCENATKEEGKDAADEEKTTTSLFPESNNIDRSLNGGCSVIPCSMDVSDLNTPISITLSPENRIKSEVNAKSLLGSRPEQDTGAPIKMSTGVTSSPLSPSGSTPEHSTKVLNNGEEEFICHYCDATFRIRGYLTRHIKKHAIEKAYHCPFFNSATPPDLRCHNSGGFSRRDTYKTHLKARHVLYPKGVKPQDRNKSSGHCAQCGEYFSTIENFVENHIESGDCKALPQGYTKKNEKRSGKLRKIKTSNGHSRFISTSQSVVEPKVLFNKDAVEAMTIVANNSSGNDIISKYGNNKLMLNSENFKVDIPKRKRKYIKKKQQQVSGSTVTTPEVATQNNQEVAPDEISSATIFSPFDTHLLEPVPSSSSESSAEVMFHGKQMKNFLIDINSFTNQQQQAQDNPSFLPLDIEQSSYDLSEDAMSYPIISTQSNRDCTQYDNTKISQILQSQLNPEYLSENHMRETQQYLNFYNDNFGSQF
Procedure, shortened: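 Full-length yeast transcription factors or their DNA-binding domains, GST-tagged and expressed with PURExpress, were applied at about 100-200 nM to universal all-10-mer Agilent arrays. These arrays had been made double-stranded by primer extension on fresh or once-stripped slides. Detection used fluorescent anti-GST, normalisation used masliner, and E-scores for ungapped eight-base words pooled with reverse complements came from the Universal PBM Analysis Suite.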

Row | Sequence | PBM E-score
1 | AGGAGATA | -0.104
2 | ACGCGGAG | 0.111
3 | CGGTCCCC | -0.295
4 | GACCAGAC | -0.173
5 | AACTCAGG | -0.273
6 | CGCTGTAG | -0.0691
7 | ATAGCAGG | 2e-05
8 | CGTCTTAG | 0.0086
9 | TGACGTAA | -0.035
10 | AGGATTTG | -0.0786
11 | CGCCTTGC | 0.35
12 | CCGCTCTC | -0.0569
13 | ACATGCCA | 0.124
14 | CTCGTCAG | -0.0139
15 | GCCTCTGA | -0.183
16 | AAGAGTCC | -0.301
17 | ATTTAGGA | 0.0408
18 | CAGGCACC | -0.107
19 | ATAATGAA | 0.261
20 | AATAATTC | 0.0962
21 | ATCCCTGC | -0.0959
22 | AAATTAGG | 0.178

Row | Sequence | PBM E-score
23 | AGGACTAC | -0.337
24 | ACCCAGAA | 0.0346
25 | CCAGCTGA | 0.0196
26 | CATAAAAC | 0.0722
27 | AGGAAGGA | -0.229
28 | CGGGTTCC | -0.148
29 | AACTGAAC | 0.0793
30 | AACCCTTA | 0.0145
31 | TACAGCAA | 0.017
32 | ATTCGACA | -0.0353
33 | AGCCGCGG | 0.376
34 | AGGACGGC | 0.324
35 | ACACCTTC | 0.0164
36 | GCTAGGCA | -0.00599
37 | GGGGGAGA | -0.265
38 | CCACTCAA | 0.189
39 | CCGCCTGC | 0.16
40 | CTACCACA | -0.131
41 | CATGGCGA | -0.0243
42 | ATGTTGGG | -0.106
43 | ATATGACA | 0.0546
44 | TCGAGTCA | -0.0858

Row | Sequence | PBM E-score
45 | GATATTGA | 0.194
46 | TAGAAACA | 0.117
47 | AGGTACAG | -0.234
48 | AGTGGCTC | 0.0246
49 | CATCTGTA | -0.00399
50 | AAGAACTA | 0.00555
51 | CACCAACA | -0.105
52 | TCACAACA | 0.187
53 | GAATTTAA | 0.0413
54 | GTCGCCAA | -0.0493
55 | AAACGGGG | 0.149
56 | ATACACAA | 0.0923
57 | CCGGCAGC | -0.063
58 | AGGCTCCG | 0.291
59 | ATCGCAGC | 0.0854
60 | GCTGTAAA | 0.147
61 | CTACGCAG | 0.113
62 | CGTCTGGC | 0.0155
63 | AAACGGGT | 0.188
64 | GTAAGGGA | -0.0448
65 | GCAAACCC | -0.23
66 | AACGTTGC | 0.0459

Row | Sequence | PBM E-score
67 | AGCAGCGA | 0.0195
68 | ACGACATA | -0.121
69 | CTTAATCA | 0.0291
70 | AAGCTTCA | -0.164
71 | ACAATACT | 0.0888
72 | CTAGGACA | -0.109
73 | ACACGGAT | 0.315
74 | CGAGTGTA | -0.0856
75 | CGCGAGTC | -0.122
76 | CACCGCCC | -0.0765
77 | CTTGCTGA | -0.163
78 | CCTATAGG | -0.197
79 | CCGACTTC | -0.238
80 | ACGGGGTA | -0.144
81 | ACTTCGTC | 0.0206
82 | AGTTCCGA | -0.0834
83 | GCATTTGA | 0.105
84 | AGGACCTC | -0.248
85 | GGTTGTCA | -0.146
86 | AAGACTCT | -0.0588
